Measurements taken from a collection of fitness landscapes (doi:10.1016/j.celrep.2020.107928).
The full ranking holds about 81,000 sequences; the median of “one-hybrid fitness for binding NBS DNA” is about -0.1, and the highest 2% start at about 0.36. Some of the results follow.

B1: Caulobacter ParB omega fusion; a variant is named by its letters at X, in order, B8GW30 (parent)
chain: MESVVVGEPGMSEGRRGLGRGLSALLGEVDAAPAQAPGEQLGGSREAPIEILQRNPDQPRRTFREEDLEDLSNSIREKGVLQPILVRPSPDTAGEYQIVAGERAWRAAQRAGLKTVPIMVRELDDLAVLEIGIIENVQRADLNVLEEALSYKVLMEKFERTQENIAQTIGKSXSHVANXMRLLXLPDEVQSYLVSGELTAXHARAIAAAADPVALAKQIIEGGLSVRETEALARKAPNLSAGKSKGGRPPRVKDTDTQALESDLSSVLGLDVSIDHRGSTGTLTITYATLEQLDDLCNRLTRGI

Variants of: B1
Experiment: one-hybrid fitness for binding NBS DNA (the Noc-binding site; scaled: cognate 1, non-cognate 0); higher = stronger binding
Conditions: with NBS DNA site
Procedure, shortened: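 Fitness is the rescaled log change in variant-to-wild-type read ratio, measured by Illumina sequencing of plasmids before and after bacterial one-hybrid selection. The scale puts cognate at 1 and non-cognate at 0. Selection of Caulobacter ParB libraries, four specificity codons randomised, took place in E. coli USO with a HIS3 reporter, site 19 bp from the promoter, over 48 hours at 37°C on M9-minus-histidine with 0.1 mM IPTG and 5 mM 3-AT.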

Variant | one-hybrid fitness for binding NBS DNA
NNTI | ≤ 0.2
HRKI | ≤ 0.2
RSNM | ≤ 0.2
EDPT | ≤ 0.2
ANAE | ≤ 0.2
ALKI | ≤ 0.2
QFQR | 0.36
QREQ | ≤ 0.2
RVER | ≤ 0.2
HLYW | ≤ 0.2
WKAR | ≤ 0.2
NSFI | ≤ 0.2
LTTM | ≤ 0.2
QGRW | ≤ 0.2
CTST | ≤ 0.2
PTDY | ≤ 0.2
CRRW | ≤ 0.2
PPRF | ≤ 0.2
MWLI | ≤ 0.2
QKQN | ≤ 0.2
SMPT | ≤ 0.2
RLCQ | ≤ 0.2
WRSL | ≤ 0.2
YRDS | ≤ 0.2
HLIK | ≤ 0.2

Variant | one-hybrid fitness for binding NBS DNA
SRID | ≤ 0.2
PYTT | ≤ 0.2
WDPD | ≤ 0.2
YWQG | ≤ 0.2
GMTL | ≤ 0.2
TMER | ≤ 0.2
SPTK | ≤ 0.2
VLHS | ≤ 0.2
LRRM | ≤ 0.2
KFHF | ≤ 0.2
MCRR | 0.236
WVGC | ≤ 0.2
THMV | ≤ 0.2
CLLC | ≤ 0.2
NDMS | ≤ 0.2
ENAG | ≤ 0.2
RDII | ≤ 0.2
TTMS | ≤ 0.2
RGHQ | ≤ 0.2
LPGC | ≤ 0.2
QVNG | ≤ 0.2
KHLP | ≤ 0.2
HRIV | ≤ 0.2
KQHR | ≤ 0.2
VQFR | ≤ 0.2

Variant | one-hybrid fitness for binding NBS DNA
IVPR | ≤ 0.2
PNTN | ≤ 0.2
LLYM | ≤ 0.2
HGES | ≤ 0.2
PWVL | ≤ 0.2
VSIT | ≤ 0.2
WIDS | ≤ 0.2
QDLN | ≤ 0.2
FFRT | ≤ 0.2
CQVS | ≤ 0.2
RNWV | ≤ 0.2
GHLT | ≤ 0.2
DQHT | ≤ 0.2
PLGA | ≤ 0.2
RGAK | ≤ 0.2
ARGM | ≤ 0.2
IRNA | ≤ 0.2
GGEF | ≤ 0.2
YKNL | ≤ 0.2
KAWP | ≤ 0.2
PEPW | ≤ 0.2
YCSL | ≤ 0.2
HYMI | ≤ 0.2
QQTS | 0.433
AKLM | ≤ 0.2

Variant | one-hybrid fitness for binding NBS DNA
FRCV | ≤ 0.2
MMKT | ≤ 0.2
PHFM | ≤ 0.2
QRQL | 0.255
HSMT | ≤ 0.2
ERKM | ≤ 0.2
CASA | ≤ 0.2
VWGR | ≤ 0.2
FNGT | ≤ 0.2
TNQT | ≤ 0.2
GIMS | ≤ 0.2
FHTT | ≤ 0.2
QDLC | ≤ 0.2
YSGA | ≤ 0.2
INPV | ≤ 0.2
SAAS | ≤ 0.2
CPPL | ≤ 0.2
PFKG | ≤ 0.2
SVQN | ≤ 0.2
DPDF | ≤ 0.2
LQYY | ≤ 0.2
EATM | ≤ 0.2
ELMT | ≤ 0.2
